# Results taken from the supplement of paper PMC12217912.
# Some of the results follow. Sequences were assembled here from the parent chain. Inactive controls read about 0.05.
# B1: TEV protease; numbered along this chain (parent)
# chain: MGESLFKGPRDYNPISSSICHLTNESDGHTTSLYGIGFGPFIITNKHLFRRNNGTLVVQSLHGVFKVKDTTTLQQHLVDGRDMIIIRMPKDFPPFPQKLKFREPQREERICLVTTNFQTKSMSSMVSDTSCTFPSGDGIFWKHWIQTKDGQCGSPLVSTRDGFIVGIHSASNFTNTNNYFTSVPKNFMELLTNQEAQQWVSGWRLNADSVLWGGHKVFMVKPEEPFQPVKEATQL
# Variants of: B1
# Experiment: raw area under fraction-flipped curve 0-4 h after induction (AUC4h, not background-subtracted), DNA-recorder readout of cleavage of the substrate (dimensionless); higher = more cleavage of the substrate by the protease variant
# Conditions: temperature: 34 °C; time window: 0-4 h after rhamnose induction
# Protocol: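 In vivo DNA recorder in E. coli TOP10(DE3) ΔrhaA at 34 °C. Each TEVp single-site mutant (parent TEVp 0) is paired with a single-site variant of the 7-mer TEVs (canonical ENLYFQ|S). The substrate sits between flexible linkers in a Bxb1-sfGFP-TEVs-SsrA fusion, so cleavage stabilises Bxb1 and speeds flipping of a recombination array, read by NGS. The value is the raw area under the fraction-flipped curve over 0-4 h after rhamnose induction (AUC4h), with ≥20 reads per time point. It is not background-subtracted; inactive controls average about 0.047.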
# 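Also: Bxb1 expression induced with 0.2% (w/v) L-rhamnose at OD600 near 0.5, cultures sampled hourly, flipped fraction per protease–substrate barcode pair counted by paired-end Illumina sequencing.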
Variant,area with substrate ENLYFAS,area with substrate ENLYFCS,area with substrate ENLYFDS,area with substrate ENLYFES,area with substrate ENLYFFS,area with substrate ENLYFGS,area with substrate ENLYFHS,area with substrate ENLYFIS,area with substrate ENLYFKS,area with substrate ENLYFLS,area with substrate ENLYFMS,area with substrate ENLYFNS,area with substrate ENLYFPS,area with substrate ENLYFRS,area with substrate ENLYFSS,area with substrate ENLYFTS,area with substrate ENLYFVS,area with substrate ENLYFWS,area with substrate ENLYFYS
T23R,0.0645,0.0541,0.079,0.0658,0.0655,0.0794,0.0668,0.0398,0.0587,0.0511,0.0618,0.0511,0.0633,0.0645,0.0526,0.0589,0.0659,0.0568,0.0563
S4R,0.0594,0.0626,0.0572,0.123,0.0728,0.0571,0.0642,0.0514,0.0635,–,0.0689,0.0638,0.0532,0.0554,0.0522,0.0586,–,0.041,–
S4M,0.0196,0.0629,0.0666,0.0611,0.0752,0.0766,0.0427,0.0533,0.0548,0.0442,0.0628,–,0.0588,0.0631,0.0817,0.0664,0.0624,–,0.0932
S4G,0.0534,0.0544,–,0.0702,0.0687,0.042,–,0.0563,0.0584,0.059,0.0561,0.071,0.0607,–,0.0623,0.0557,0.0516,0.0602,0.0691
N13K,0.042,0.0649,0.0727,0.0543,0.0611,0.0595,0.0615,0.0568,0.0587,0.0629,0.0622,0.0624,0.0634,0.0496,0.0605,0.0606,0.0509,0.0578,0.0603
N13R,0.0547,0.0675,–,0.0585,0.0717,–,0.0588,0.0687,0.0604,–,0.0622,0.0567,0.0647,0.0588,0.0622,0.0559,0.0644,0.0586,–
N13G,0.0678,0.0623,0.057,0.0667,0.0699,0.0652,0.0568,0.0635,0.0733,0.0676,0.0532,0.0618,0.0564,0.0662,0.072,0.0458,0.0578,0.0554,0.0594
F6H,0.035,–,0.053,–,0.0719,–,–,0.0539,0.0727,–,–,–,0.058,–,–,0.0546,–,–,–
H21D,0.0568,0.0473,–,–,0.0618,–,0.0526,0.0517,0.0495,0.0628,0.0552,–,0.0546,0.0593,0.0675,0.0526,0.0556,0.0592,0.0396
H21N,0.0588,–,–,0.0621,0.0774,0.0698,0.0517,0.0564,0.0617,0.0597,0.0598,0.0599,0.0715,0.0535,0.0769,0.061,0.0547,0.0595,0.0505
H21Y,0.0356,0.0584,0.0737,0.0606,0.0671,–,0.0574,0.0579,0.0525,–,0.0647,0.0615,0.0572,0.0643,–,0.0584,–,0.0545,0.0786
